Results on 42 compounds are retold here after publication PMC4336329 (PLoS ONE, 2015).

Hit rate of the full screen: of about 310,000 compounds, about 14,000 (4.5%) showed an effect of 50% or more. The effect is printed as a negative number. Some of the results follow.
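Also: peak tail current of the secondary pulse compared with the same well before compound.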

human ether-à-go-go-related gene (hERG) potassium channel, sequence (Q12809 whole entry, looked up): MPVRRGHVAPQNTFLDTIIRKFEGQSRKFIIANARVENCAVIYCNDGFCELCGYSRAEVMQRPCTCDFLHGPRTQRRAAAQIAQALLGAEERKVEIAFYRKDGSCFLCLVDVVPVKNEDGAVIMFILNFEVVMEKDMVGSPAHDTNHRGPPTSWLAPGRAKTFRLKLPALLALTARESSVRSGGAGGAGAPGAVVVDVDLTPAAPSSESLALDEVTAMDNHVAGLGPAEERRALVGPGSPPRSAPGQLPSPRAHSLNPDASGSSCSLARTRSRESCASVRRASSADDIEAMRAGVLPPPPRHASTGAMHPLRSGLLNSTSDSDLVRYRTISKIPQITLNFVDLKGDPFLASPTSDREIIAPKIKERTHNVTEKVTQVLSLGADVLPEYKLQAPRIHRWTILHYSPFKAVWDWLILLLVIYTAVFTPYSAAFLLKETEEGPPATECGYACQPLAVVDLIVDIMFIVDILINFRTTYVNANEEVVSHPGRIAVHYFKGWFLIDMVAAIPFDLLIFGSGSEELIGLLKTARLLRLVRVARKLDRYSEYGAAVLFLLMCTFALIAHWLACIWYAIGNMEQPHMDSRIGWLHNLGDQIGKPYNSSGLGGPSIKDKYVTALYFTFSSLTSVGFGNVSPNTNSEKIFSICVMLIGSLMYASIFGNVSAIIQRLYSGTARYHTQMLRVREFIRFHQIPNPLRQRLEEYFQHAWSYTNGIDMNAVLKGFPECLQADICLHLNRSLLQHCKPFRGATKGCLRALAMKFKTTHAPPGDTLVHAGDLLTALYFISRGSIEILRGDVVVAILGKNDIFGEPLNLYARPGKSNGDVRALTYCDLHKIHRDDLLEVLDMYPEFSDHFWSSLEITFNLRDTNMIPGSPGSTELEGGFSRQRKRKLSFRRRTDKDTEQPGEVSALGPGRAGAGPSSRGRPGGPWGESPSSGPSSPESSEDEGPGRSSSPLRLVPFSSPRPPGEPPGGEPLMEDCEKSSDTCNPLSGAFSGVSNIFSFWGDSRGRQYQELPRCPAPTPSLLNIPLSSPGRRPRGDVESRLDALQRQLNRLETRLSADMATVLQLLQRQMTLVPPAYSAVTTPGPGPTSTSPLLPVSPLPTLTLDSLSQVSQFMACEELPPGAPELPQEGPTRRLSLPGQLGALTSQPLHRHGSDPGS

The assay addresses human ether-à-go-go-related gene (hERG) potassium channel (human, UniProt Q12809). The experiment in a line: primary screen, population patch clamp on CHO cells stably expressing hERG.
With `Cc1c(C(=O)N2CCC(C(N)=O)CC2)oc2ccc(Br)cc12`, the “hERG current change (%, negative = inhibition) at 10uM” value is given as -20.9%.

Take `COc1ccc(OC)c(C(=O)N2CCC(C(=O)c3ccc(F)cc3)CC2)c1`: the “hERG current change (%, negative = inhibition) at 10uM” value was -4.44%.

Turning to `Cc1cccc(NC(=O)c2nc[nH]c2C(=O)N[C@H](C)c2ccccc2)c1`, the “hERG current change (%, negative = inhibition) at 10uM” value is reported as 9.28%.

On to `O=C(O)CC1S/C(=N/N=C2CCCCC2)N(c2ccccc2)C1=O` (stereo not drawn), for which the “hERG current change (%, negative = inhibition) at 10uM” value was 10.3%.

For the compound `CN1CCC(=NNC(=O)c2cn(-c3ccccc3)nc2-c2ccccc2)CC1`, the “hERG current change (%, negative = inhibition) at 10uM” value worked out at 5.43%.

For `Cc1ccc(CNC(=O)C2CCN(S(=O)(=O)c3ccc4c(c3)CC(C)N4C(=O)C3CC3)CC2)cc1` (stereo not drawn), the “hERG current change (%, negative = inhibition) at 10uM” value is reported as -2.56%.

Take `CCn1cc(C(=O)NCc2ccco2)c2cc(OC)c(OC)cc2c1=O`: the “hERG current change (%, negative = inhibition) at 10uM” value is recorded as -20.9%.

On to `COc1ccc(C2=NOC(C(=O)NCc3cccs3)C2)cc1OC` (stereo not drawn), for which the “hERG current change (%, negative = inhibition) at 10uM” value amounted to 13.6%.

For the compound `CC(C)CC(NC(=O)c1cccs1)c1nnc(SCc2ccc(Cl)c(Cl)c2)n1C` (stereo not drawn), the “hERG current change (%, negative = inhibition) at 10uM” value is -6.85%.

For the compound `CCOC(=O)CSc1nc2ccc(C)cc2cc1C#N`, the “hERG current change (%, negative = inhibition) at 10uM” value is reported as -12.1%.

On to `COc1ccc(-n2c(CNC(=O)COc3ccccc3)n[nH]c2=S)cc1`, for which the “hERG current change (%, negative = inhibition) at 10uM” value amounted to 13.1%.

On to `COC(=O)CSc1nc(N)nc(C)c1Br`, for which the “hERG current change (%, negative = inhibition) at 10uM” value is 16.2%.

For `O=C1Nc2ccccc2Nc2ccc([N+](=O)[O-])cc21`, the “hERG current change (%, negative = inhibition) at 10uM” value was -6.92%.

On to `COc1ccc(CC(=O)Nc2nc(C)cs2)cc1S(=O)(=O)N1CCOCC1`, for which the “hERG current change (%, negative = inhibition) at 10uM” value is -11.5%.

Take `Cc1ccc(/C=N/NC(=O)c2cc3c(s2)CCCC3)o1`: the “hERG current change (%, negative = inhibition) at 10uM” value was determined as 3.39%.

For the compound `Cc1cnc(NC(=O)CSc2ccc(Cl)cc2)s1`, the “hERG current change (%, negative = inhibition) at 10uM” value was -15.7%.

Turning to `Cc1sc2ncn(CC(=O)N3CCN(c4ccccc4)CC3)c(=O)c2c1S(=O)(=O)N1CCOCC1`, the “hERG current change (%, negative = inhibition) at 10uM” value is on record as -16%.

Take `Cc1ccc(N2CC(C(=O)NCc3nnnn3-c3ccc(C)c(C)c3)CC2=O)cc1` (stereo not drawn): the “hERG current change (%, negative = inhibition) at 10uM” value is -19.8%.

For the compound `O=C(O)c1cccc2c1C(=O)c1ccccc1-2`, the “hERG current change (%, negative = inhibition) at 10uM” value amounted to 23.4%.

Take `CCCCC1=NN(C(=O)c2cocc2C)C(O)(C(F)(F)F)C1` (stereo not drawn): the “hERG current change (%, negative = inhibition) at 10uM” value was determined as 5.91%.

`Cc1[nH]c(=O)[nH]c(=O)c1S(=O)(=O)N1CCCC1`: the “hERG current change (%, negative = inhibition) at 10uM” value is listed as 17.6%.

Take `CC(C)CCNC(=O)C(c1cccs1)N(CC1CCCO1)C(=O)Cn1nnc2ccccc21` (stereo not drawn): the “hERG current change (%, negative = inhibition) at 10uM” value is 8.36%.

For the compound `COC(=O)/C(=C/Nc1ccc(O)cc1)[N+](=O)[O-]`, the “hERG current change (%, negative = inhibition) at 10uM” value amounted to 12.7%.

With `COc1ccccc1CNCC(=O)N1CC(=O)Nc2ccccc21.O=C(O)C(=O)O`, the “hERG current change (%, negative = inhibition) at 10uM” value is 21.6%.

Turning to `COc1cccc(N(C(=O)Cn2nnc(-c3ccc(F)cc3)n2)C(C(=O)NCC2CCCO2)c2ccc(Cl)cc2)c1` (stereo not drawn), the “hERG current change (%, negative = inhibition) at 10uM” value amounted to 15.3%.

In the case of `Cc1c(C)[n+](=O)c(-c2ccc(F)cc2)c(C)n1[O-]`, the “hERG current change (%, negative = inhibition) at 10uM” value came out at 0.0285%.

`Cc1nnc(SCC(=O)Nc2ncc3c(n2)CC(C)(C)CC3=O)s1`: the “hERG current change (%, negative = inhibition) at 10uM” value was 0.652%.

With `COc1ccc(CCNC(=S)N2CCC(Cc3ccccc3)CC2)cc1OC`, the “hERG current change (%, negative = inhibition) at 10uM” value is -41.1%.

Regarding `CCOC(=O)c1[nH]c2ccccc2c1NC(=S)Nc1ccccc1`, the “hERG current change (%, negative = inhibition) at 10uM” value amounted to 11%.

In the case of `COc1nc(N(C)C)nc(N(OC)S(=O)(=O)c2ccccc2Cl)n1`, the “hERG current change (%, negative = inhibition) at 10uM” value was -5.85%.

For the compound `O=C(N[C@@H](Cc1c[nH]c2ccccc12)C(=O)O)c1ccccc1Cl`, the “hERG current change (%, negative = inhibition) at 10uM” value was 3.44%.

As for `O=C(Cn1cc2c(n1)CCCC2)NCCCN1CCN(C2CCCCC2)CC1`, the “hERG current change (%, negative = inhibition) at 10uM” value turned out to be 6.35%.

Take `CN1C(=O)S/C(=C/c2ccc(OCc3cccc(C(=O)O)c3)cc2)C1=O`: the “hERG current change (%, negative = inhibition) at 10uM” value came to 22.5%.

Take `COc1cc(CNCCSc2nnnn2C)cc(Br)c1OCc1ccccc1F.Cl`: the “hERG current change (%, negative = inhibition) at 10uM” value is given as -19.5%.

`O=C(C[n+]1ccc(C(=O)N/N=C/c2ccc(OCc3ccccc3)cc2)cc1)c1ccccc1.[Br-]`: the “hERG current change (%, negative = inhibition) at 10uM” value was 1.3%.

Take `NC(=O)c1ccc(NC(=O)CCCN2C(=O)c3ccccc3C2=O)cc1`: the “hERG current change (%, negative = inhibition) at 10uM” value stood at 6.76%.

On to `Cc1nc(-c2ccccn2)sc1C(=O)Nc1ccc(F)cc1F`, for which the “hERG current change (%, negative = inhibition) at 10uM” value was 12.5%.

In the case of `CC1(C)Oc2ccc(C(=O)Nc3ccccc3)cc2N(CC#N)C1=O`, the “hERG current change (%, negative = inhibition) at 10uM” value is given as -7.58%.

For the compound `Cn1c(=O)c2c(nc(CN3CCOCC3)n2CC(O)CO)n(C)c1=O` (stereo not drawn), the “hERG current change (%, negative = inhibition) at 10uM” value is recorded as -7.88%.

With `COc1ccc(/C=N/NC(=O)c2cccc(O)c2)cc1Cn1nc(C)c([N+](=O)[O-])c1C`, the “hERG current change (%, negative = inhibition) at 10uM” value came out at 41%.

On to `CCn1c(CCNC(=O)c2cccs2)nnc1SCC(=O)NC1CCCCC1`, for which the “hERG current change (%, negative = inhibition) at 10uM” value was 0.651%.

On to `CCOC(=O)c1[nH]c(COC(=O)c2ccccc2NC(=O)c2ccco2)c(C(=O)OCC)c1C`, for which the “hERG current change (%, negative = inhibition) at 10uM” value was determined as 11.6%.
